{"source": "the supplement of paper PMC4604168 (melanoma cell lines)", "note": "The other results are listed elsewhere or left out. Many values rest on one well or one pass, so single values are uncertain."}
{"test_system": "SkMel28", "assay": "cell count relative to DMSO control; melanoma cells; higher = more viable cells", "conditions": "library dose: standard library concentration; 72 h", "units": {"cell count": "%"}}
{"molecule": "NC(=O)c1ccc(N(C(N)=O)c2c(F)cccc2F)nc1-c1ccc(F)cc1F", "note": "+ C=C(c1ccc(C(=O)O)cc1)c1cc2c(cc1C)C(C)(C)CCC2(C)C [Bexarotene] (first compound 2 µM, partner dose 10 µM);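 note: cells treated in 1,536-well plates, then fixed and DAPI-stained, with nuclei counted from automated high-throughput microscope images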", "cell count": 103}
{"molecule": "CCc1ccc(CCOc2ccc(CC3SC(=O)NC3=O)cc2)nc1", "note": "(stereo unspecified) [pioglitazone] + N#Cc1c(O)c2c(-c3ccc(-c4ccccc4O)cc3)csc2[nH]c1=O [A769662] (first compound 10 µM, partner dose 10 µM)", "cell count": 91.3}
{"molecule": "CC(C)(C)c1cnc(CSc2cnc(NC(=O)C3CCNCC3)s2)o1", "note": "+ Cc1cc([N+](=O)[O-])ccc1NS(=O)(=O)c1cc(Cl)ccc1Cl [FH535] (first compound 0.05 µM, partner dose 5 µM)", "cell count": 55.6}
{"molecule": "NC(=O)c1ccc(N(C(N)=O)c2c(F)cccc2F)nc1-c1ccc(F)cc1F", "note": "+ CN(c1ncccc1CNc1nc(Nc2ccc3c(c2)CC(=O)N3)ncc1C(F)(F)F)S(C)(=O)=O [PF562271] (first compound 2 µM, partner dose 0.4 µM)", "cell count": 76.1}
{"molecule": "Cc1ccc(NC(=O)c2cccc(N(C)C)c2)cc1NC(=O)c1ccc(O)cc1", "note": "+ Cc1cc(N2CCOCC2)cc2[nH]c(-c3c(NC[C@@H](O)c4cccc(Cl)c4)cc[nH]c3=O)nc12 [BMS536924] (first compound 10 µM, partner dose 1 µM)", "cell count": 95}
{"molecule": "Cc1ccc(NC(=O)c2cccc(N(C)C)c2)cc1NC(=O)c1ccc(O)cc1", "note": "+ Cn1cc(/C=C2\\C(=O)Nc3cccnc32)c2ccccc21 [GW441756] (first compound 10 µM, partner dose 2 µM)", "cell count": 80.7}
{"molecule": "CC(C)(C)c1cnc(CSc2cnc(NC(=O)C3CCNCC3)s2)o1", "note": "+ OCCn1cc(-c2cnc3nnn(Cc4ccc5ncccc5c4)c3n2)cn1 [PF04217903] (first compound 0.05 µM, partner dose 5 µM)", "cell count": 42}
{"molecule": "NC(=O)c1ccc(N(C(N)=O)c2c(F)cccc2F)nc1-c1ccc(F)cc1F", "note": "+ CCCCCCCCc1ccc(CCC(N)(CO)CO)cc1 [fingolimod] (first compound 2 µM, partner dose 10 µM)", "cell count": 1}
{"molecule": "NC(=O)c1ccc(N(C(N)=O)c2c(F)cccc2F)nc1-c1ccc(F)cc1F", "note": "+ C[C@@H](Oc1cc(-c2cnn(C3CCNCC3)c2)cnc1N)c1c(Cl)ccc(F)c1Cl [Crizotinib] (first compound 2 µM, partner dose 1 µM)", "cell count": 75.2}
{"molecule": "CCCCCCCCc1ccc(CCC(N)(CO)CO)cc1", "note": "[fingolimod] + C=C(c1ccc(C(=O)O)cc1)c1cc2c(cc1C)C(C)(C)CCC2(C)C [Bexarotene] (first compound 10 µM, partner dose 10 µM)", "cell count": 1.52}
{"molecule": "NC(=O)c1ccc(N(C(N)=O)c2c(F)cccc2F)nc1-c1ccc(F)cc1F", "note": "+ O=C(O)c1ccc(-c2c[nH]c3ncc(-c4ccccc4)cc23)cc1C1CCCC1 [GSK650394] (first compound 2 µM, partner dose 0.8 µM)", "cell count": 77.8}
{"molecule": "CCCCCCCCc1ccc(CCC(N)(CO)CO)cc1", "note": "[fingolimod] + CS(=O)(=O)CCNCc1ccc(-c2ccc3ncnc(Nc4ccc(OCc5cccc(F)c5)c(Cl)c4)c3c2)o1 [lapatinib] (first compound 10 µM, partner dose 4 µM)", "cell count": 0.214}
{"molecule": "CC(C)(C)c1cnc(CSc2cnc(NC(=O)C3CCNCC3)s2)o1", "note": "+ CN(NC(=O)CC(=O)NN(C)C(=S)c1ccccc1)C(=S)c1ccccc1 [STA4783] (first compound 0.05 µM, partner dose 0.03 µM)", "cell count": 15.5}
{"molecule": "CCCCCCCCc1ccc(CCC(N)(CO)CO)cc1", "note": "[fingolimod] + COc1ccc(Cl)c(Nc2nc3ccccc3nc2NS(=O)(=O)c2cccc(NC(=O)C(C)(C)N)c2)c1 [XL147] (first compound 10 µM, partner dose 4 µM)", "cell count": 1.26}
{"molecule": "CCCCCCCCc1ccc(CCC(N)(CO)CO)cc1", "note": "[fingolimod] + C[C@@H]1CCN(C(=O)CC#N)C[C@@H]1N(C)c1ncnc2[nH]ccc12 [CP690550] (first compound 10 µM, partner dose 5 µM)", "cell count": 0.321}
{"molecule": "COc1cc2c(Oc3ccc4[nH]c(C)cc4c3F)ncnc2cc1OCCCN1CCCC1", "note": "[cediranib] + CCN(CC)CCCCNc1ncc2cc(-c3cc(OC)cc(OC)c3)c(NC(=O)NC(C)(C)C)nc2n1 [PD173074] (first compound 2 µM, partner dose 0.5 µM)", "cell count": 83.2}
